# In publication PMC4336329 (PLoS ONE, 2015):
# The whole screen tested about 310,000 compounds, of which about 2,200 (0.71%) showed an effect of 50% or more. Effects have a minus sign here. The list shows a part of the results.
# Target: human ether-à-go-go-related gene (hERG) potassium channel (human, UniProt Q12809)
# Assay: primary screen, population patch clamp on CHO cells stably expressing hERG
# Sequence of human ether-à-go-go-related gene (hERG) potassium channel (Q12809 whole entry, looked up): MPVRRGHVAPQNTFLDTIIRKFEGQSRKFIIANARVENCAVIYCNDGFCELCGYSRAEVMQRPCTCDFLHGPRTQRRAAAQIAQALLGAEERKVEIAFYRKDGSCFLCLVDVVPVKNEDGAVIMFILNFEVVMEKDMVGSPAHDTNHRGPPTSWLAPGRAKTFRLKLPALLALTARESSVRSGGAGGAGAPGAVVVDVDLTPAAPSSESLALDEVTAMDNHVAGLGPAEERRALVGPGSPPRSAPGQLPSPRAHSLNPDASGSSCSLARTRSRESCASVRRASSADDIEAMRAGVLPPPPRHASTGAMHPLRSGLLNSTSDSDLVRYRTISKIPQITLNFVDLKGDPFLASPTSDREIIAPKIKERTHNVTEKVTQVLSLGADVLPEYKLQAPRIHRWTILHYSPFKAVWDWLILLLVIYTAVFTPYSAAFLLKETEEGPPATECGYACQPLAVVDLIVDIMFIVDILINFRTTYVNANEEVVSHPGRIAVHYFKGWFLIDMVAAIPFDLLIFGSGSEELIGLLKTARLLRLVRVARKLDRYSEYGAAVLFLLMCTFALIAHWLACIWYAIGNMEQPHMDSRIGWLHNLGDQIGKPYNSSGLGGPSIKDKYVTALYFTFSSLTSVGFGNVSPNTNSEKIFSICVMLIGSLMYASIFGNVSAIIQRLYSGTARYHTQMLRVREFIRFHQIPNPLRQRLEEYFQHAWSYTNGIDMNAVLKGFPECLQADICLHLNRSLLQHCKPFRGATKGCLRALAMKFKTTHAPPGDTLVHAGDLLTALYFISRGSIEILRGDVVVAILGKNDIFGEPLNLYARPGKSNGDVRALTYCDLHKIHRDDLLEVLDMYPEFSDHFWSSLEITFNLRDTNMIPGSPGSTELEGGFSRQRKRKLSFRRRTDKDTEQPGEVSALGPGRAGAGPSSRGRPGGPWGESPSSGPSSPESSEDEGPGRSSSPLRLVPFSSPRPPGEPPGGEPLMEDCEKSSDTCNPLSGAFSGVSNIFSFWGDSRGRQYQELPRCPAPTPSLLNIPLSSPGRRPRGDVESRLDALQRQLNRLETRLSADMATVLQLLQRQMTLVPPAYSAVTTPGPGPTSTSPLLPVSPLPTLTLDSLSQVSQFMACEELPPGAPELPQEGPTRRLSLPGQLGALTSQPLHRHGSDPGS
row,SMILES,"hERG current change (%, negative = inhibition) at 1uM [%]"
1,CCN(CC)P(=O)(Nc1ccc([N+](=O)[O-])cc1)c1c(C)nn(CCC#N)c1NC(=O)c1ccc(Cl)cc1Cl (centres unmarked),-0.927
2,CCC(C)N1CCCC1C(=O)Nc1c(C)cc(C)cc1C.Cl (centres unmarked),1.17
3,Cc1cc(-c2nnc(SCC(=O)Nc3ccccc3C(F)(F)F)n2N)n[nH]1,19.4
4,COCCOC(=O)C1=C(C)NC2=C(C(=O)CCC2)C1c1ccc(N(C)C)cc1 (centres unmarked),-4.29
5,CCc1cc(C(=O)NCCN(C)C)cs1,-4.33
6,C/C(=N\NC(=O)CSc1nc2ccccc2o1)c1cccc(O)c1,6.06
7,C/C(=N/OCC(=O)NCCCCCCNC(=O)CO/N=C(/C)c1cccs1)c1cccs1,17.5
8,CCN(CC)S(=O)(=O)c1cccc(C(=O)NC2=NCCS2)c1,15.6
9,C=CCN1C(=O)C(Cc2ccccc2Cl)SC1=Nc1ccc(C(=O)O)cc1 (centres unmarked),8.92
10,Cc1cc(C)cc(NC(=O)CSc2ccc(-c3ccccn3)nn2)c1,14.6
11,CCC1CCc2c(sc(NC(=O)C3CC=CCC3C(=O)O)c2C#N)C1 (centres unmarked),3.12
12,O=c1[nH]nc(N/N=C/c2ccccc2OC(F)F)c(=O)[nH]1,11.8
13,CCCN(CC(=O)Nc1cc(Cl)ccc1Cl)C(=O)c1ccc2n[nH]nc2c1,-8.7
14,COC(=O)c1cccc(NC(=S)N2CCN(C)CC2)c1,7.91
15,CCN(CC(=O)N1CCCC1)S(=O)(=O)c1ccc2ccccc2c1,12.3
16,COc1ccc2[nH]c3c(NCc4ccco4)ncnc3c2c1,-5.07
17,Cc1ccccc1OCCn1c(=S)[nH]c2ccccc21,15.5
18,O=C1c2ccccc2C(=O)c2[nH]cnc21,6.89
19,CCN(CC)C(=O)Oc1ccc(Cl)c2ccccc12,9.96
20,CC(C)COC(=O)NC1c2ccccc2Oc2ccccc21,-2.38
21,CC1=Nc2ccccc2/C1=C\c1nc(-c2ccc(F)cc2)oc1O,17.4
22,CC(C)C1Oc2ccccc2C(=O)N(CC(=O)c2ccc3c(c2)OCCO3)C1=O (centres unmarked),11.9
23,CC(=O)N1CCN(C(=O)CNC(=O)c2ccc(Br)o2)CC1,12.5

row,SMILES,"hERG current change (%, negative = inhibition) at 1uM [%]"
1,Cc1cccc(N(CC(=O)N2CCN(c3ccccc3F)CC2)S(C)(=O)=O)c1,5.79
2,Cc1cc(C(=O)O)c(CSc2ncn[nH]2)o1,15.5
3,Cc1nnc(NC(=O)c2ccccc2F)s1,12.7
4,Cc1ccc(N(CC(=O)O)C2SC(=O)NC2=O)cc1 (centres unmarked),12.9
5,COc1ccc(NC(=O)CCN2C(=O)C3C4C=CC(C4)C3C2=O)cc1 (centres unmarked),5.4
6,O=C(Nc1ccccc1Cl)c1ccc(-n2cccn2)c([N+](=O)[O-])c1,6.01
7,O=c1[nH]c2ccccc2nc1-c1ccc(Cl)cc1,18.7
8,CCOC(=O)c1csc(NC(=O)CSc2nnnn2CC)n1,9.27
9,COc1ccc(-c2nnc(NC(=O)c3ccc(S(=O)(=O)N4CCCc5ccccc54)cc3)o2)cc1,5.94
10,Cn1c(SCC(=O)C(C)(C)C)nnc1-c1ccccn1,1.57
11,COc1ccc(NC(=O)C2CC(=O)N/C(=N/NC(=O)c3ccc(Cl)cc3)S2)cc1 (centres unmarked),-4.25
12,Cc1ccc(C(=O)N2CCSCC2)cc1,-6.84
13,Cc1noc(C)c1C(=O)OC(C)C(=O)Nc1ccc(C(N)=O)cc1 (centres unmarked),-8.97
14,O=[N+]([O-])CC(=Nc1ccc(Cl)cc1)N/N=C\c1oc(O)c2ccccc12,6.07
15,CCc1ccc(-c2nc(CN3CCC(C(=O)NCCN(CC)c4ccccc4)CC3)c(C)o2)cc1,-15.6
16,Cc1cc(N2CCN(C)CC2)nc2ccc(NC(=S)N3CCN(c4cccc(Cl)c4)CC3)cc12,11.1
17,Cc1ccc2[nH]c(C(=O)N3CCN(C(c4ccccc4)c4ccccc4)CC3)cc2c1,14.8
18,Cc1cccc(NC(=O)CN2C(=O)NC(C)(c3ccc4ccccc4c3)C2=O)n1 (centres unmarked),-15.6
19,COc1ccc(-c2cc(C(=O)Nc3ccc(S(=O)(=O)Nc4onc(C)c4C)cc3)c3ccccc3n2)cc1,15.6
20,O=C(OCCCN1CCOCC1)c1ccc(O)c(O)c1,8.77
21,Nc1nc(Nc2cccc(Cl)c2)nc(NCc2ccco2)c1[N+](=O)[O-],17.6
22,Cc1ccc(S(=O)(=O)Nc2ccc(-c3nnc(SCc4ccccc4Cl)o3)cc2)cc1,13.7
23,CN(C1CCCC1)C1CCN(C(=S)Nc2cc(F)cc(F)c2)CC1,-3.25

row,SMILES,"hERG current change (%, negative = inhibition) at 1uM [%]"
1,Nc1nc(SCC(=O)c2ccc(F)cc2)n[nH]1,9.83
2,COc1cc(CC(=O)OC2CCOC2=O)cc(OC)c1OC (centres unmarked),8.86
3,S=C(c1ccc(Cl)cc1)N1CCN(Cc2ccccc2)CC1,7.65
4,Cc1ccc(CSc2nnc(-c3ccccn3)n2C)cc1,7.53
5,CN(C)c1ccc(C(C(=O)NCC2CCCO2)N(C(=O)c2snc(C(N)=O)c2N)c2ccc3c(c2)OCO3)cc1 (centres unmarked),16.4
6,O=C(CN1C(=O)C2CC=CCC2C1=O)NCC(=O)Nc1ccc(F)c(F)c1F (centres unmarked),7.4
7,FC(F)(F)c1nc2cc3nc4ccccc4[nH]c3cc2n1,14.6
8,Cc1ccc(S(=O)(=O)N2CCN(CC3CC4C=CC3C4)CC2)cc1.O=C(O)C(=O)O (centres unmarked),6.89
9,CCCNC(=O)C(Cc1ccc(I)cc1)NC(=O)c1ccc(C#N)cc1 (centres unmarked),15.6
10,C=CSc1sc(Cl)c(N(C)C)c1[N+](=O)[O-],14.8
11,CC1(C)Cc2cccc(OCC(=O)OCC(=O)Nc3cccc(S(N)(=O)=O)c3)c2O1,7.6
12,CC(=O)c1cccc(NC(=O)c2cc(=O)c3ccccc3o2)c1,14.2
13,CC(=O)Nc1ccc(NC(=O)CNC(=O)c2cccc(C)c2)cc1,7.03
14,COc1ccc(C2N(c3ccc(Cl)cc3)C(=O)C3CCCN32)cc1 (centres unmarked),4.51
15,Cc1nnc(SCc2nnc(-c3ccccc3Br)o2)n1-c1ccccc1,5.91
16,CC(C)(C)NC(=O)CN(C(=O)C(=O)Nc1ccc2c(c1)OCCO2)N1CCOCC1,-0.319
17,O=c1c2ccccc2ncn1/N=C/c1ccccc1,29.8
18,Fc1ccc(NC(=S)Nc2nccs2)cc1,-10.7
19,CCOc1cc(O)c(-c2[nH]ncc2-c2nc(C)cs2)cc1CC,10.6
20,COc1cc(C(=O)Nc2cccc(-c3nnc(-c4ccco4)o3)c2)ccc1OC(C)=O,-6.03
21,CCOc1nc(N=C(N)N)nc2c(C)cccc12,6.56
22,CC(=O)N1c2ccc(S(=O)(=O)NCC3CCC(C(=O)NC4CCCCC4)CC3)cc2CC1C (centres unmarked),11.7
23,CCn1cc(Cl)c(C(=O)Nc2ccccc2C(N)=O)n1,0.414

row,SMILES,"hERG current change (%, negative = inhibition) at 1uM [%]"
1,Cc1nc2ccc(NC(=O)c3ccc([N+](=O)[O-])cc3)cc2s1,10.6
2,COc1ccc(CC(=O)NCc2ccccn2)cc1OC,14.8
3,O=C(/C=C/c1cn(-c2ccccc2)nc1-c1cccnc1)c1ccco1,12.2
4,O=C(CN1CCN(S(=O)(=O)c2ccc(Br)cc2)CC1)Nc1ccc2c(c1)OCO2,-0.34
5,Cc1ccc(C)c2c(N)c3c(nc12)CCCCC3.O=C(O)c1cncc(Br)c1,-51.9
6,CCc1cc(-c2nc(N)ncc2-c2ccc(Br)cc2)c(O)cc1OC,10.4
7,CC/C(=N\NC(=O)c1ccccc1Cl)c1ccc(Br)s1,5.98
8,C/C(=N\Nc1ncc(Cl)cc1Cl)c1ccc2c(c1)OCO2,2.97
9,CCn1c(SCC(=O)NCC(=O)Nc2ccc(F)cc2)nnc1-c1ccncc1,5.93
10,CC(C)N(C(=O)NC(=O)NCC1CCCO1)S(C)(=O)=O (centres unmarked),11.8
11,Cc1ccc(-n2ncc3c(NCc4ccco4)ncnc32)cc1C,0.882
12,CN(C(=O)CSc1nnc(-c2ccc(Cl)cc2)n1CC1CCCO1)C1CCS(=O)(=O)C1 (centres unmarked),2.87
13,CCOc1ccccc1C(=O)N/N=C/c1c[nH]c2ccccc12,19
14,Cc1cc(C(=O)NCc2cc(C)n(C)n2)sc1-c1ccccc1,-6.43
15,CCc1nnc(SCC(=O)Nc2ccc(N3CCOCC3)cc2)n1C,10.2
16,Cn1c(=O)c2c(nc(SCc3cccnc3)n2Cc2ccccc2)n(C)c1=O,7.43
17,CN1C(=O)C(O)(C2COC(C)(C)CC2=O)c2cc(Br)ccc21 (centres unmarked),-8.82
18,COc1ccccc1CC(=O)N1CCN(S(=O)(=O)c2ccccc2)CC1,12.8
19,CN(C(=O)Cc1ccc(Cl)c(Cl)c1)C(CN1CCCC1)c1cccc(OCC(=O)O)c1.Cl (centres unmarked),8.26
20,CCCCSc1nc(NCc2ccco2)c2c3c(sc2n1)COC(C)(C)C3,1.11
